Measurements: article PMC10668032
The other results are listed elsewhere or left out. At the low end of the ranking the order means little.

These sequences were tested against SIX1-Q177R homeodomain (UniProt Q15475) (assay: universal protein binding microarray). Conditions: Universal all-10-mer PBM (8x60K, AMADID 030236), 300 nM GST-tagged protein, Alexa Fluor 488 anti-GST; buffer, salt, pH and temperature not stated; high values mean tight binding; most listed sequences are background and not binding sites; double strand, one strand shown.

Sequence | binding signal [E-score]
CACGAGTA | 0.167
CGTTTAGA | -0.194
CCTCTACA | 0.137
AATGAGCC | -0.137
GCACCAAC | 0.261
CACCTGGG | 0.279
CTGAGCTC | -0.36
ACGTCTAA | -0.0762
GAATTCTA | -0.066
AACTACAC | 0.445
GTGATGGA | 0.0585
CTACGTTA | -0.178
AAGCGATC | -0.116
CCCCTTGA | 0.0744
ATCAAAAT | -0.167
CGAGTACG | 0.19
ATAGTACC | 0.113
GCCTTACA | -0.00121
ATGCAAAC | -0.182
AAGATTCC | -0.177
ACAACAGA | -0.25
CCAAGACG | 0.0133
ACGCACGC | 0.0323
AAACTCCT | 0.00791
AAGTTACT | -0.193

Sequence | binding signal [E-score]
CTAGCCTC | -0.137
AATGATCT | -0.13
AAGCGCTT | -0.126
AGTCCATA | -0.0407
ACACTTCA | 0.313
CAAACCGC | -0.21
AAACACGC | 0.336
AAATAGCC | -0.146
AACGGAAT | -0.18
AATAGGTC | -0.0979
GTTTCCAA | -0.113
CAACCAAC | -0.0983
CGCGTTTC | -0.00562
CAATTTCA | -0.256
AACAACAG | -0.165
AGCCCCGA | -0.184
ACGCGTTA | 0.00453
GGACATAC | -0.00882
CACATACA | 0.144
CAGCTAGC | -0.0192
AAACTCAA | -0.0161
CTCTCAAG | -0.14
CCCTTCAA | -0.0638
CACCGGAG | 0.328
CTCAGTCA | -0.12

Sequence | binding signal [E-score]
TCTCCCAA | -0.0699
AACTATAT | -0.251
AACCTCCG | 0.0373
CAACAAAC | 0.0389
GGGTGTAA | 0.478
GTTAAATA | -0.116
TCTGGGCA | -0.2
CTACGGCC | -0.234
ATGATGTA | 0.0337
ACTGATTA | -0.134
ACAAACTC | -0.148
CCCAAACC | -0.118
AGGAGCCT | -0.00543
AGGAGTTC | -0.00571
ATGAAATA | -0.0822
GCAAGGGC | -0.0889
GTCCTCTA | -0.018
AAGGGGCT | 0.0375
CGACCCAC | 0.125
CGATACCC | 0.411
ACTTGCGC | 0.0481
ACGCGCTA | -0.179
GGTTAATA | 0.0583
GGTTCTGA | -0.0741
GACCGGGA | -0.0334

Sequence | binding signal [E-score]
ACGTTGTA | -0.222
ACCGTCCA | -0.053
CTGCGTGA | -0.0163
ACACTCAC | 0.39
CTCTAAAG | -0.0926
GAACAGTC | -0.167
CGCGGCGA | 0.118
AACCTGAG | -0.0169
GAGCGACC | -0.181
AGGCTGCG | -0.0874
GAAATACA | -0.00516
GGATATTA | 0.066
AGATGAAC | -0.1
ATACCCGG | 0.243
CTTGCGGA | -0.234
GCGTAAGA | -0.174
GGACCCAA | -0.0477
GTCCCAAA | -0.0441
AGAATTAT | 0.0382
CCGCTCAA | -0.0414
GGACTCCA | 0.105
GATACATC | -0.00797
GGACTTGA | -0.128
AGAGCCAG | -0.0317
GCTCCGCA | -0.185

Sequence | binding signal [E-score]
GAACGATA | 0.0422
ACCCCGAG | 0.317
GAAAGCGC | 0.00801
AGTGAGAC | -0.0247
ATGATACG | 0.189
CTGGGAAG | -0.0929
ATACCAGA | 0.114
CCGTAAAC | 0.0103
ATAGCATC | -0.276
CCGCACGC | -0.0367
CTGTGAAG | -0.113
ATAGTAGG | 0.00996
GCTTGAAA | -0.157
ATCTCATG | 0.00215
ATCCCCAC | 0.211
ACCCAACG | 0.0904
ACGGGTAC | 0.095
ATGCGTCC | -0.163
CTAACTAA | -0.238
AAGGTGTG | 0.369
CGCCTCTA | 0.0591
AAGTTGAC | 0.0103
GGTTTGAC | -0.0343
AGAACCTC | -0.167
AGACCTTC | -0.138

Sequence | binding signal [E-score]
CGGCATCC | 0.089
GGTGCGAC | 0.116
CGGAAAAA | -0.144
GGCTCATA | -0.201
CCCGGCCC | 0.167
AGTACGAG | -0.178
CCTAGTGC | 0.0947
CCGGTTCA | 0.0854
ACACAGCT | 0.148
CAACACGG | 0.38
GGTCTAGA | 0.028
CGCATGGC | -0.19
CACGATCC | 0.314
ATCGCGAT | -0.217
CCTAGAGC | -0.0423
CCCTCGGC | 0.0181
AATTACTA | -0.0221
AACAACAT | -0.316
CGCCCTCA | -0.00666
ATGTCTGG | -0.106
AGATCATA | 0.0411
ATTTAAGA | -0.142
GGGCCTCA | -0.205
ACGCGCAT | 0.0823
CGTACGCC | 0.145

Sequence | binding signal [E-score]
GTCAACGA | -0.0001
ATAAGAAT | -0.26
ACGTTCGC | -0.156
CTGTTTGC | -0.169
GAGAGGGC | -0.191
GATTGAGA | -0.103
GAGCGCCC | -0.135
ATTAGGCA | -0.101
CTATTTTA | -0.119
CTGTAAGC | -0.218
CGCAGACG | -0.0609
AAAGCCGA | 0.00121
CTCTTTGC | -0.109
AGTTACCG | -0.00915
CGACTCTA | 0.0362
ATTTTATG | -0.186
GGGATTAC | 0.0966
CGGTATGA | -0.0385
CATCATCC | -0.122
TACTAGGA | 0.00636
ACGGGGAA | 0.027
AAATCATC | -0.288
